The values below come from publication PMC4336329 (PLoS ONE, 2015).

The campaign covered roughly 310,000 compounds. About 14,000 (4.5%) showed an effect of 50% or more. Effects have a minus sign here. This is one part of the list.
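Also: peak tail current of the secondary pulse compared with the same well before compound.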

In the assay the target is human ether-à-go-go-related gene (hERG) potassium channel (human, UniProt Q12809). The experiment in a line: primary screen, population patch clamp on CHO cells stably expressing hERG.
Chain of human ether-à-go-go-related gene (hERG) potassium channel (Q12809 whole entry, looked up): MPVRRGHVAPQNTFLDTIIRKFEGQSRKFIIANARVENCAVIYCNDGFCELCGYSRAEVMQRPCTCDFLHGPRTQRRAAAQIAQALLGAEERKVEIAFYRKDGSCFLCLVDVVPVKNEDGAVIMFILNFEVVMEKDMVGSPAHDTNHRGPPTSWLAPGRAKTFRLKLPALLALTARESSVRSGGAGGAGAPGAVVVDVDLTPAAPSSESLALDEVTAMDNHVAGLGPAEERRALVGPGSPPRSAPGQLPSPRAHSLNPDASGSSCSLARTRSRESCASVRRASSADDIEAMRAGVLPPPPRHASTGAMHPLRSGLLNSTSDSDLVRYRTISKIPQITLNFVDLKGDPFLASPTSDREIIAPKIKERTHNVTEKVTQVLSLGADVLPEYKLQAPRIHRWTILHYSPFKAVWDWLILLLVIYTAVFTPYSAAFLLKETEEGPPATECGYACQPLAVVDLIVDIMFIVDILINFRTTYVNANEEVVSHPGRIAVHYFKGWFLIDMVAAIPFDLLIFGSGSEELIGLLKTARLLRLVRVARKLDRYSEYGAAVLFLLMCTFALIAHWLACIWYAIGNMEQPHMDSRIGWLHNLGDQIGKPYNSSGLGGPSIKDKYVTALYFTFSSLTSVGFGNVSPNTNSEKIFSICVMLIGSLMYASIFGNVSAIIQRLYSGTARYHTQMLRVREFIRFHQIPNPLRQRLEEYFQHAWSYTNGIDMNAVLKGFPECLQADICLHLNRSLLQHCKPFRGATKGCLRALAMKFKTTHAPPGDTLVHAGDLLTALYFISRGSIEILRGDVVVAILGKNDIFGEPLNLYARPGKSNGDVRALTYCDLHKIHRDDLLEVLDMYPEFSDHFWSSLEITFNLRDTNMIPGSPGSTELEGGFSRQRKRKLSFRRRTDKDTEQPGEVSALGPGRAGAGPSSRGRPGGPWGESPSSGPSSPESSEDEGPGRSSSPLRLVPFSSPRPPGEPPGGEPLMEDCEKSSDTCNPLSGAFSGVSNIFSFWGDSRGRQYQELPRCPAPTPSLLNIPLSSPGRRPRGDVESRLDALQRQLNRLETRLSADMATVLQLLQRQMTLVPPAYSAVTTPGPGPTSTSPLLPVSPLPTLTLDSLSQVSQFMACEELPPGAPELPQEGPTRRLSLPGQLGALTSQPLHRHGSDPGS
For the molecule `CCC1(CC)C(=O)NC(=NCCc2c[nH]c3ccccc23)NC1=O`, the “hERG current change (%, negative = inhibition) at 10uM” value came out at 11.7%.

With `COC(=O)N/N=C/c1c(C)nn(-c2cccc(Cl)c2)c1Cl`, the “hERG current change (%, negative = inhibition) at 10uM” value amounted to 0.835%.

In the case of `O=C(Cn1ccn(-c2ccc(F)c(Cl)c2)c(=O)c1=O)NCCc1ccccc1`, the “hERG current change (%, negative = inhibition) at 10uM” value was -8.97%.

`CCCOC1CCCN(Cc2nc(-c3cnccn3)no2)C1` (centres unmarked): the “hERG current change (%, negative = inhibition) at 10uM” value was 11.8%.

Consider `N#Cc1ccccc1S(=O)(=O)N1CCN(CC(=O)NC(=O)NC2CCCCC2)CC1`, for which the “hERG current change (%, negative = inhibition) at 10uM” value was -31.6%.

Take `O=C(NCCCCNC(=O)c1ccco1)c1ccco1`: the “hERG current change (%, negative = inhibition) at 10uM” value amounted to 7.45%.

For `CCOc1ccc(N2C(=O)CC(N(CCc3ccccc3)C(=O)/C=C/C(=O)O)C2=O)cc1` (centres unmarked), the “hERG current change (%, negative = inhibition) at 10uM” value is recorded as 8.98%.

On to `Cc1ccc(C(=O)NNC2=NCCC2)cc1`, for which the “hERG current change (%, negative = inhibition) at 10uM” value is -8.69%.

For `CCc1ccc(N/C(N)=N/c2nc(CSc3ccccn3)cc(=O)[nH]2)cc1`, the “hERG current change (%, negative = inhibition) at 10uM” value is on record as 3.29%.

As for `O=C(COc1ccc2ccc(=O)oc2c1)Nc1ccc(CCO)cc1`, the “hERG current change (%, negative = inhibition) at 10uM” value is 4.43%.

`CN(C)C1(CNC(=O)c2cc(S(=O)(=O)N3CCOCC3)c(Cl)cc2Cl)CCCCC1`: the “hERG current change (%, negative = inhibition) at 10uM” value is recorded as -41.5%.

Regarding `Cc1ccc(/C=C/C(=O)c2cc(Br)ccc2OC(=O)c2ccco2)cc1`, the “hERG current change (%, negative = inhibition) at 10uM” value is 15.4%.

As to `Cc1onc(-c2c(F)cccc2Cl)c1C(=O)Nc1nc2c(s1)CCCC2`, the “hERG current change (%, negative = inhibition) at 10uM” value was -29.5%.

For `COCc1nnc(SCC(=O)Nc2cccc(Cl)c2C)n1-c1ccccc1`, the “hERG current change (%, negative = inhibition) at 10uM” value is given as -48.6%.

Turning to `COc1ccc(-c2nc(CN3CCC(C(=O)NCC4CCCO4)CC3)c(C)o2)cc1OC` (centres unmarked), the “hERG current change (%, negative = inhibition) at 10uM” value is listed as -20.9%.

As to `COc1cc(C)nc(NC(=S)N(C)C(=O)c2ccccc2)n1`, the “hERG current change (%, negative = inhibition) at 10uM” value is listed as 18.6%.

Turning to `CNS(=O)(=O)c1ccc(C)cc1`, the “hERG current change (%, negative = inhibition) at 10uM” value was 5.12%.

Take `COc1ccc(-c2cc(=O)c3c(O)cc(OC4OC(COC5OC(C)C(O)C(O)C5O)C(O)C(O)C4O)cc3o2)cc1O` (centres unmarked): the “hERG current change (%, negative = inhibition) at 10uM” value is listed as 9.14%.

As for `O=C(NCCS(=O)(=O)N1CCN(c2ccccc2)CC1)c1cccs1`, the “hERG current change (%, negative = inhibition) at 10uM” value is reported as -7.47%.

With `O=C(CN1CCC(O)(c2ccc3c(c2)OCO3)CC1)N1CCOCC1`, the “hERG current change (%, negative = inhibition) at 10uM” value is on record as 14.1%.

Take `O=C1C(=O)N(CCCn2ccnc2)C(c2ccc(Br)cc2)/C1=C(\O)c1ccc2c(c1)OCCO2` (centres unmarked): the “hERG current change (%, negative = inhibition) at 10uM” value is 15.8%.

As for `CC(C)N(Cc1ccc(F)cc1)C(=O)c1cc2ccccc2oc1=O`, the “hERG current change (%, negative = inhibition) at 10uM” value worked out at 19.5%.

In the case of `COc1cc(OC)c(OC)cc1/C=N/NC(=O)CCc1c(C)n[nH]c1C`, the “hERG current change (%, negative = inhibition) at 10uM” value was determined as 19%.

As to `COc1ccc(-c2nnc(Nc3nc4c(OC)cccc4s3)o2)c(OC)c1`, the “hERG current change (%, negative = inhibition) at 10uM” value was 18.8%.

On to `COC(=O)C1=C(C)NC(=O)/C1=C\c1cc(C)n(-c2ccccc2C)c1C`, for which the “hERG current change (%, negative = inhibition) at 10uM” value was determined as 7.07%.

Consider `O=C(NCc1ccccn1)c1ccc(OC2CCN(Cc3ccc(Cl)s3)CC2)cc1`, for which the “hERG current change (%, negative = inhibition) at 10uM” value was -33%.

In the case of `COc1ccc(Cl)cc1CN1CCN(c2nc(C)cc(C)c2C#N)CC1`, the “hERG current change (%, negative = inhibition) at 10uM” value is reported as -7.74%.

As for `CCCC(=O)NC(=S)Nc1ccccc1N1CCOCC1`, the “hERG current change (%, negative = inhibition) at 10uM” value is listed as -3.07%.

As to `COc1ccccc1C(=O)N/C(=C\c1cn(S(=O)(=O)N(C)C)c2ccccc12)C(=O)NCCN1CCOCC1`, the “hERG current change (%, negative = inhibition) at 10uM” value is recorded as -2.62%.

On to `Oc1ccc(-c2csc(-c3cccnc3)n2)cc1O`, for which the “hERG current change (%, negative = inhibition) at 10uM” value stood at 2.09%.

Consider `CCOC(=O)N1CCN(S(=O)(=O)c2cccc3cccnc23)CC1`, for which the “hERG current change (%, negative = inhibition) at 10uM” value is reported as -9.63%.

`O=C(NCCOc1ccccc1)C1CCC(=O)N(CCc2ccccn2)C1` (centres unmarked): the “hERG current change (%, negative = inhibition) at 10uM” value is recorded as -11.9%.

`O=C(CCc1ccccc1F)N1CCN(c2ccccc2)CC1`: the “hERG current change (%, negative = inhibition) at 10uM” value is given as 12%.

Regarding `COc1cc([N+](=O)[O-])cc(/C=N/NC(=O)CSc2nnc(-c3ccccc3)n2C)c1O`, the “hERG current change (%, negative = inhibition) at 10uM” value came to 28.8%.

Regarding `OC(C#CCN1CCOCC1)(c1ccccc1)C1CCCCC1` (centres unmarked), the “hERG current change (%, negative = inhibition) at 10uM” value is recorded as 13.6%.

For the molecule `Cc1c(Cl)cccc1NC(=O)NCc1ccccn1`, the “hERG current change (%, negative = inhibition) at 10uM” value is 15.1%.

With `COc1ccccc1-c1cc(C(=O)NCc2ccc(Cl)cc2)no1`, the “hERG current change (%, negative = inhibition) at 10uM” value was 3.64%.

In the case of `Cn1c(SCC(=O)Nc2ccccc2F)nnc1-c1cccnc1`, the “hERG current change (%, negative = inhibition) at 10uM” value was -10.4%.

For the molecule `Cc1ccccc1CN1CCN(S(=O)(=O)c2ccc(Cl)s2)CC1`, the “hERG current change (%, negative = inhibition) at 10uM” value is listed as 3.24%.

Turning to `CC(C)c1ccc(NC(=O)C2CCCN(S(=O)(=O)c3ccc4c(c3)C(C)(C)C(=O)N4C)C2)cc1` (centres unmarked), the “hERG current change (%, negative = inhibition) at 10uM” value is listed as -1.88%.

Turning to `COc1ccc(CNC(=O)COc2ccc(S(=O)(=O)N3CCOCC3)cc2C)cc1`, the “hERG current change (%, negative = inhibition) at 10uM” value is -18.4%.

Turning to `C/C(=N/NC(=O)CNC(=O)/C=C/c1ccco1)c1ccc(Cl)cc1`, the “hERG current change (%, negative = inhibition) at 10uM” value is on record as -4.77%.

Turning to `CC1(C)C[C@@H]2C[C@@](C)(CN2C(=O)c2cc(COc3cccc(C(F)(F)F)c3)on2)C1`, the “hERG current change (%, negative = inhibition) at 10uM” value is 11.1%.

`O=C(COc1ccccc1)OCC(=O)c1ccc(O)cc1O`: the “hERG current change (%, negative = inhibition) at 10uM” value came out at 17.5%.
